The other results are listed elsewhere or left out.
The sequences below were run against T1, OsWOX13 (Oryza sativa, UniProt Q5QMM3 1-267) (assay: protein-binding microarray (RPBM); PBS, 2% BSA, 51.3 ng/ul salmon testes DNA, 50 uM zinc acetate, 200 nM TF, 25 C, 1 h; high values mean tight binding). Conditions: protein: recombinant; tags: N-terminal polyhistidine and DsRed monomer fusion (pET32a); label: CyDye5-dUTP incorporated in the synthesized complementary strand; 3' TTTTT single-stranded linker to array surface; dsDNA, one strand shown.
T1 sequence: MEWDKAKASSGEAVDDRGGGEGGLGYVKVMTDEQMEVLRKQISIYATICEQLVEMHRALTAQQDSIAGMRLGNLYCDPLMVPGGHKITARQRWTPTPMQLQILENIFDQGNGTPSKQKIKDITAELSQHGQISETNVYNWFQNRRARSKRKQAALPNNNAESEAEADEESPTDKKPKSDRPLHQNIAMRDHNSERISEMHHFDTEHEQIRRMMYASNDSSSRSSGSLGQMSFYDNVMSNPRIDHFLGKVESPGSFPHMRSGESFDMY
Summary of the method: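 Binding signal here means per-feature fluorescence intensity in arbitrary units. The values were read on an Axon 4000B scanner after a custom Agilent array, double-stranded by primer extension with Cy5-dUTP, was incubated with 200 nM protein at 25 °C for 1 h in PBS with 2% BSA, salmon testes DNA and 50 µM zinc acetate, then washed. The proteins were transcription factors with an N-terminal polyhistidine tag and DsRed, expressed in E. coli BL21-CodonPlus and purified on Ni–NTA.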
With “TCAAGTGATTGCTCCATTCATAACTTTTCATTTGAACTGACGGAGTCACCTAGTGCAG” the binding signal was 16700 fluorescence intensity (a.u.). In the case of “CCTCTGATTTATGCGTAATTAGATCTAGGTTCCCCACAAACGGAGTCACCTAGTGCAG”, the binding signal is reported as 43600 fluorescence intensity (a.u.). In the case of “GCAGCTGACAGATGGAGGGATGTTCAGGATGTCCGGAGAACGGAGTCACCTAGTGCAG”, the binding signal is reported as 3250 fluorescence intensity (a.u.). “TCTGACCTGTATACTAATTTATGACCATATACTTAATCAACGGAGTCACCTAGTGCAG” was tested, and the binding signal was 5380 fluorescence intensity (a.u.). “GTAAATTCACTAGTGACAATGATGGAAAATGTAAGGGGAACGGAGTCACCTAGTGCAG” was tested, and the binding signal was 3650 fluorescence intensity (a.u.). “ATGATTATGTGGGTGCTTATGGAGGTATCCCTGAGACTTTCGGAGTCACCTAGTGCAG” was tested, and the binding signal was 4580 fluorescence intensity (a.u.). “CATGCCAGTTAATTAGTAGTAGTATTGATGATGCATCTTACGGAGTCACCTAGTGCAG” was tested, and the binding signal was 8450 fluorescence intensity (a.u.). For “CGTGGTTGATTATCACGTGTCCATTAGGGTCCAGCTTATTCGGAGTCACCTAGTGCAG”, the binding signal was 17000 fluorescence intensity (a.u.). In the case of “TTGATTGAGAAAATCCCTTAAATTATAGAACGGAGGAGTACGGAGTCACCTAGTGCAG”, the binding signal is reported as 47000 fluorescence intensity (a.u.). In the case of “AAATGTGATTGTGCTTACTTAAAGCCGTAAGCATTGACTACGGAGTCACCTAGTGCAG”, the binding signal is reported as 7860 fluorescence intensity (a.u.). “GCCTGATTATAGACAATAAAGTTGGCGACGTTCCACGTCCCGGAGTCACCTAGTGCAG” was tested, and the binding signal was 22900 fluorescence intensity (a.u.). With “AATTAATTAAGGTGATATGGATTAATGAGAGAAGAAAATGCGGAGTCACCTAGTGCAG” the binding signal was 17700 fluorescence intensity (a.u.). In the case of “ACTGATAGATGTTAGTATCAACAAACTCCAAGGTGTGCTACGGAGTCACCTAGTGCAG”, the binding signal is reported as 33300 fluorescence intensity (a.u.). In the case of “GCTGACGATTTATAACTGGTTTTAATACTGGGTTTTGAACCGGAGTCACCTAGTGCAG”, the binding signal is reported as 12100 fluorescence intensity (a.u.). With “CACCATAACTAATTAACAAGCCACCTATTTCCTCTTGACACGGAGTCACCTAGTGCAG” the binding signal was 10800 fluorescence intensity (a.u.). In the case of “TATAAATTATGGACATGTTTAGACTAAGAACTGATCGAGTCGGAGTCACCTAGTGCAG”, the binding signal is reported as 15000 fluorescence intensity (a.u.). For “TTGGATGAAATTTGTTATCAGAATTTGCGAAATTTTCATCCGGAGTCACCTAGTGCAG”, the binding signal was 4630 fluorescence intensity (a.u.). In the case of “CAACACACGGTTTGATTAACATATCTAACGGAAACCTGACCGGAGTCACCTAGTGCAG”, the binding signal is reported as 3930 fluorescence intensity (a.u.). With “CTTGACACGAGAAATTCTGTCAAACACTCAATCAGCAGCACGGAGTCACCTAGTGCAG” the binding signal was 11400 fluorescence intensity (a.u.). For “AGTTAATTGACAACTTATATTATACGATGCCATCACTCTACGGAGTCACCTAGTGCAG”, the binding signal was 40200 fluorescence intensity (a.u.). With “CTCAATAATGAATTAATGATCTTGAATTTGCTGATTTCAACGGAGTCACCTAGTGCAG” the binding signal was 11500 fluorescence intensity (a.u.). For “TTGTATCTGGTTTTGTGATTGAAGGATGAAAATCGGATTCCGGAGTCACCTAGTGCAG”, the binding signal was 12500 fluorescence intensity (a.u.). “TTAGCATATGATTATTTGAATATTAACTATCTGTTAATATCGGAGTCACCTAGTGCAG” was tested, and the binding signal was 3480 fluorescence intensity (a.u.).
